Reference: patent US6841566B2, “Viral polymerase inhibitors” (Boehringer Ingelheim, Ltd., priority 2001, dated 2005)

Molecular target: hepatitis C virus RNA dependant polymerase (NS5B) (Hepatitis C virus genotype 1b, UniProt P26663)
Assay: Inhibition of NS5B RNA dependent RNA polymerase activity (SPA, oligo-U/polyA)
Method: The compounds of the invention were tested for inhibitory activity against the hepatitis C virus RNA dependant polymerase (NS5B), according to the following assay:
The substrates are: • a 12 nucleotide RNA oligo-uridylate (or oligo-uridine-monophosphate) (oligo-U) primer modified with biotin at the free 5′C position; • a complementary poly-adenylate (or adenosine monophosphate) (polyA) template of heterogeneous length (1000-10000 nucleotides); and UTP-[5,6 ^3H].
Polymerase activity is measured as the incorporation of UMP-[5,6 ^3H] into the chain elongated from the oligo-U primer. The ^3H-labelled reaction product is captured by SPA-beads coated with streptavidin and quantified on the TopCount.
The enzyme can be stored at −20° C. in storage buffer (see below).
The biotinylated oligo-U12 primer, the Poly(A) template, and the UTP-[5,6 ^3H] were dissolved in water. The solutions can be stored at −80° C.
Just prior to assay, test compounds of the invention were dissolved in assay buffer containing 15% DMSO.
Just prior to assay, the substrates were mixed in assay buffer to the following concentrations:
Just prior to assay, the RNA polymerase (NS5B) cocktail was prepared in assay buffer to the following specifications:
The assay reaction was performed in a Microfluor™ white “U” bottom plate (Dynatech™ #7105), by successively adding: • 20 μL of test compound cocktail; • 20 μL of substrate cocktail; and • 20 μL of enzyme cocktail (final [NS5B] in assay=10 nM; final [n-dodecyl maltoside] in assay=0.33%; final DMSO in assay=5%).
The reaction was incubated at room temperature for 1.5 hours. STOP solution (20 μL; 0.5 M EDTA, 150 ng/μl tRNA) was added, followed by 30 μl streptavidin coated PVT beads (8 mg/ml in 20 mM Tris-HCl, pH 7.5, 25 mM KCl, 0.025% NaN3). The plate was then shaken for 30 minutes. A solution of CsCl was added (70 μL, 5 M), to bring the CsCl concentration to 1.95 M. The mixture was then allowed to stand for 1 hour. The beads were then counted on a Hewlett Packard TopCount™ instrument using the following protocol: • Data mode: counts per minute • Scintillator: liq/plast • Energy range: low • Efficiency mode: normal • Region: 0-50 • Count delay: 5 minutes • Count time: 1 minute • Expected results: 6000 cpm/well • 200 cpm/well no enzyme control.
Based on the results at ten different concentrations of test compound, standard concentration-% inhibition curves were plotted and analysed to determine IC50's for the compounds of the invention. For some compounds, the IC50 was estimated from two points.

Structure (SMILES)	IC50
Cn1cccc1-c1nc2cc(C(=O)NC3(C(=O)Nc4ccc(C=CC(=O)O)cc4)CCCC3)ccc2n1C1CC2CCC1C2 (mixture of isomers) [compound 2016]	0.5 to 5 µM
O=C(O)C=Cc1ccc(NC(=O)C2(NC(=O)c3ccc4c(c3)nc(-c3ccco3)n4C3CC4CCC3C4)CCCC2)cc1 (mixture of isomers) [compound 2017]	< 0.5 µM
O=C(O)C=Cc1ccc(NC(=O)C2(NC(=O)c3ccc4c(c3)nc(-c3ccccc3)n4C3CC4CCC3C4)CCCC2)cc1 (mixture of isomers) [compound 2018]	0.5 to 5 µM
O=C(O)C=Cc1ccc(NC(=O)C2(NC(=O)c3ccc4c(c3)nc(-c3cccs3)n4C3CC4CCC3C4)CCCC2)cc1 (mixture of isomers) [compound 2019]	< 0.5 µM
O=C(O)C=Cc1ccc(NC(=O)C2(NC(=O)c3ccc4c(c3)nc(-c3ccccn3)n4C3CC4CCC3C4)CCCC2)cc1 (mixture of isomers) [compound 2020]	< 0.5 µM
O=C(O)C=Cc1ccc(NC(=O)C2(NC(=O)c3ccc4c(c3)nc(-c3ccoc3)n4C3CC4CCC3C4)CCCC2)cc1 (mixture of isomers) [compound 2021]	< 0.5 µM
O=C(O)C=Cc1ccc(NC(=O)C2(NC(=O)c3ccc4c(c3)nc(-c3ccc[nH]3)n4C3CC4CCC3C4)CCCC2)cc1 (mixture of isomers) [compound 2022]	0.5 to 5 µM
O=C(O)C=Cc1ccc(NC(=O)C2(NC(=O)c3ccc4c(c3)nc(-c3cccc5c3OCO5)n4C3CC4CCC3C4)CCCC2)cc1 (mixture of isomers) [compound 2023]	0.5 to 5 µM
CC1CCCC(C)C1n1c(-c2cccn2C)nc2cc(C(=O)NC3(C(=O)Nc4ccc(C=CC(=O)O)cc4)CCCC3)ccc21 (mixture of isomers) [compound 2032]	0.5 to 5 µM
CC1CCCC(C)C1n1c(-c2ccco2)nc2cc(C(=O)NC3(C(=O)Nc4ccc(C=CC(=O)O)cc4)CCCC3)ccc21 (mixture of isomers) [compound 2033]	0.5 to 5 µM
CC1CCCC(C)C1n1c(-c2ccccc2)nc2cc(C(=O)NC3(C(=O)Nc4ccc(C=CC(=O)O)cc4)CCCC3)ccc21 (mixture of isomers) [compound 2034]	0.5 to 5 µM
CC1CCCC(C)C1n1c(-c2cccs2)nc2cc(C(=O)NC3(C(=O)Nc4ccc(C=CC(=O)O)cc4)CCCC3)ccc21 (mixture of isomers) [compound 2035]	< 0.5 µM
CC1CCCC(C)C1n1c(-c2ccccn2)nc2cc(C(=O)NC3(C(=O)Nc4ccc(C=CC(=O)O)cc4)CCCC3)ccc21 (mixture of isomers) [compound 2036]	0.5 to 5 µM
CC1CCCC(C)C1n1c(-c2ccc[nH]2)nc2cc(C(=O)NC3(C(=O)Nc4ccc(C=CC(=O)O)cc4)CCCC3)ccc21 (mixture of isomers) [compound 2038]	0.5 to 5 µM
C[C@@H]1CCCC[C@H]1n1c(-c2cccn2C)nc2cc(C(=O)NC3(C(=O)Nc4ccc(/C=C/C(=O)O)cc4)CCCC3)ccc21 (racemic) [compound 2040]	0.5 to 5 µM
C[C@@H]1CCCC[C@H]1n1c(-c2ccco2)nc2cc(C(=O)NC3(C(=O)Nc4ccc(/C=C/C(=O)O)cc4)CCCC3)ccc21 (racemic) [compound 2041]	0.5 to 5 µM
C[C@@H]1CCCC[C@H]1n1c(-c2ccccc2)nc2cc(C(=O)NC3(C(=O)Nc4ccc(/C=C/C(=O)O)cc4)CCCC3)ccc21 (racemic) [compound 2042]	0.5 to 5 µM
C[C@@H]1CCCC[C@H]1n1c(-c2ccccn2)nc2cc(C(=O)NC3(C(=O)Nc4ccc(/C=C/C(=O)O)cc4)CCCC3)ccc21 (racemic) [compound 2044]	0.5 to 5 µM
C[C@@H]1CCCC[C@H]1n1c(-c2ccc[nH]2)nc2cc(C(=O)NC3(C(=O)Nc4ccc(/C=C/C(=O)O)cc4)CCCC3)ccc21 (racemic) [compound 2046]	0.5 to 5 µM
C[C@@H]1CCCC[C@H]1n1c(-c2cccc3c2OCO3)nc2cc(C(=O)NC3(C(=O)Nc4ccc(/C=C/C(=O)O)cc4)CCCC3)ccc21 (racemic) [compound 2047]	0.5 to 5 µM
CC(NC(=O)c1ccc2c(c1)nc(-c1ccoc1)n2C1CCCCC1)C(=O)Nc1cccc(C(=O)O)c1 (stereo not drawn) [compound 1001]	0.5 to 5 µM
CC(NC(=O)c1ccc2c(c1)nc(-c1ccoc1)n2C1CCCCC1)C(=O)Nc1cccc(/C=C/C(=O)O)c1 (stereo not drawn) [compound 1002]	0.5 to 5 µM
CC(NC(=O)c1ccc2c(c1)nc(-c1ccoc1)n2C1CCCCC1)C(=O)Nc1ccc(CCCC(=O)O)cc1 (stereo not drawn) [compound 1003]	0.5 to 5 µM
CC(NC(=O)c1ccc2c(c1)nc(-c1ccoc1)n2C1CCCCC1)C(=O)Nc1cc(CC(=O)O)ccc1O (stereo not drawn) [compound 1004]	0.5 to 5 µM

Structure (SMILES)	IC50
O=C(O)/C=C/c1ccc(NC(=O)[C@@H](NC(=O)c2ccc3c(c2)nc(-c2ccoc2)n3C2CCCCC2)c2ccccc2)cc1 [compound 1005]	0.5 to 5 µM
O=C(O)/C=C/c1ccc(NC(=O)[C@H](NC(=O)c2ccc3c(c2)nc(-c2ccoc2)n3C2CCCCC2)c2ccccc2)cc1 [compound 1006]	0.5 to 5 µM
CC(NC(=O)c1ccc2c(c1)nc(-c1ccoc1)n2C1CCCCC1)C(=O)Nc1cccc(CC(=O)O)c1 (stereo not drawn) [compound 1007]	0.5 to 5 µM
CC(NC(=O)c1ccc2c(c1)nc(-c1ccoc1)n2C1CCCCC1)C(=O)Nc1ccc(CC(=O)O)cc1 (stereo not drawn) [compound 1008]	0.5 to 5 µM
CC(NC(=O)c1ccc2c(c1)nc(-c1ccoc1)n2C1CCCCC1)C(=O)Nc1ccc(C(C)C(=O)O)cc1 (stereo not drawn) [compound 1009]	0.5 to 5 µM
CC(NC(=O)c1ccc2c(c1)nc(-c1ccoc1)n2C1CCCCC1)C(=O)Nc1ccc(Cl)c(/C=C/C(=O)O)c1 (stereo not drawn) [compound 1010]	0.5 to 5 µM
CC/C(=C\c1cccc(NC(=O)C(C)NC(=O)c2ccc3c(c2)nc(-c2ccoc2)n3C2CCCCC2)c1)C(=O)O (stereo not drawn) [compound 1011]	0.5 to 5 µM
CC(NC(=O)c1ccc2c(c1)nc(-c1ccoc1)n2C1CCCCC1)C(=O)Nc1ccccc1-c1ccc(C(=O)O)o1 (stereo not drawn) [compound 1012]	0.5 to 5 µM
CC[C@H](C)C(NC(=O)c1ccc2c(c1)nc(-c1ccoc1)n2C1CCCCC1)C(=O)Nc1ccc(/C=C/C(=O)O)cc1 (stereo partly drawn) [compound 1013]	0.5 to 5 µM
O=C(O)/C=C/c1ccc(NC(=O)C(CC2CCCCC2)NC(=O)c2ccc3c(c2)nc(-c2ccoc2)n3C2CCCCC2)cc1 (stereo not drawn) [compound 1014]	0.5 to 5 µM
O=C(O)/C=C/c1ccc(NC(=O)[C@@H](CCc2ccccc2)NC(=O)c2ccc3c(c2)nc(-c2ccoc2)n3C2CCCCC2)cc1 [compound 1015]	0.5 to 5 µM
O=C(O)C=Cc1ccc(NC(=O)C(NC(=O)c2ccc3c(c2)nc(-c2ccoc2)n3C2CCCCC2)c2ccccc2)cc1 (stereo not drawn) [compound 1016]	0.5 to 5 µM
O=C(O)/C=C/c1ccc(NC(=O)C(NC(=O)c2ccc3c(c2)nc(-c2ccoc2)n3C2CCCCC2)C2CCCCC2)cc1 (stereo not drawn) [compound 1017]	0.5 to 5 µM
O=C(O)/C=C/c1ccc(NC(=O)[C@H](Cc2ccc(-c3ccccc3)cc2)NC(=O)c2ccc3c(c2)nc(-c2ccoc2)n3C2CCCCC2)cc1 [compound 1018]	5 to 25 µM
O=C(O)/C=C/c1ccc(NC(=O)C(NC(=O)c2ccc3c(c2)nc(-c2ccoc2)n3C2CCCCC2)c2cccs2)cc1 (stereo not drawn) [compound 1019]	0.5 to 5 µM
CC(NC(=O)c1ccc2c(c1)nc(-c1ccoc1)n2C1CCCCC1)C(=O)Nc1cccc(-c2cccc(O)c2)c1 (stereo not drawn) [compound 1020]	5 to 25 µM
CC(NC(=O)c1ccc2c(c1)nc(-c1ccoc1)n2C1CCCCC1)C(=O)Nc1cccc(-c2ccc(O)cc2)c1 (stereo not drawn) [compound 1021]	5 to 25 µM
CC(NC(=O)c1ccc2c(c1)nc(-c1ccoc1)n2C1CCCCC1)C(=O)Nc1cccc(-c2cccc(N)c2)c1 (stereo not drawn) [compound 1022]	0.5 to 5 µM
C[C@@H](NC(=O)c1ccc2c(c1)nc(-c1ccoc1)n2C1CCCCC1)C(=O)Nc1nc(-c2ccc(OCC(=O)O)cc2)cs1 [compound 1023]	0.5 to 5 µM
C[C@@H](NC(=O)c1ccc2c(c1)nc(-c1ccoc1)n2C1CCCCC1)C(=O)Nc1ccc(-c2csc(N)n2)cc1 [compound 1024]	0.5 to 5 µM
C[C@@H](NC(=O)c1ccc2c(c1)nc(-c1ccoc1)n2C1CCCCC1)C(=O)Nc1ccc(OC(C)(C)C(=O)O)cc1 [compound 1025]	0.5 to 5 µM
Cc1cc(=O)oc2cc(NC(=O)[C@@H](C)NC(=O)c3ccc4c(c3)nc(-c3ccoc3)n4C3CCCCC3)ccc12 [compound 1026]	0.5 to 5 µM
Cc1oc(-c2ccc(NC(=O)[C@@H](C)NC(=O)c3ccc4c(c3)nc(-c3ccoc3)n4C3CCCCC3)cc2)cc1C(=O)O [compound 1027]	0.5 to 5 µM
O=C(NC1(C(=O)Nc2ccc3oc(=O)ccc3c2)CCCC1)c1ccc2c(c1)nc(-c1ccoc1)n2C1CCCCC1 [compound 1028]	0.5 to 5 µM
